Experimental data taken from PubChem BioAssay AID894 (National Center for Advancing Translational Sciences (NCATS), 2007).
Among all 150,000 compounds or so, about 6,500 (4.3%) were called active. Inconclusive means that the source gave no clear call. Such entries were picked first, then a sample of the others. Calls come from the whole dose curve; as a rule, active = well fitted inhibition curve with a large enough effect (not every such curve was filed as active); inconclusive = small, poorly fitted or top-dose-only effect, or another doubt; inactive = no such curve, though single readings can be large or run the other way. Where the call is inconclusive, the potency comes from a doubtful curve fit.

Each molecule was assayed against 15-hydroxyprostaglandin dehydrogenase [NAD(+)] (Homo sapiens) (UniProt P15428) (assay: qHTS Assay for Inhibitors of HPGD (15-Hydroxyprostaglandin Dehydrogenase)). Conditions: purified HPGD, NADH fluorescence kinetic, PGE2 substrate; activity change, negative = inhibition: active compounds read low.
Outline: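 NADH formation kinetics: reaction with 30 uM PGE2 and 1 mM NAD+ (final), 20 nM enzyme, Tris-HCl pH 8 with Tween 20, after 15 min compound preincubation at room temperature. Fluorescence change, last versus first of five reads.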
% is set by controls: 0 for no effect and ±100 for the full control effect; potency is the fitted concentration of half-maximal effect; tags give direction and shape of the fitted curve.

Chain of UniProt P15428 (P15428 whole entry, looked up): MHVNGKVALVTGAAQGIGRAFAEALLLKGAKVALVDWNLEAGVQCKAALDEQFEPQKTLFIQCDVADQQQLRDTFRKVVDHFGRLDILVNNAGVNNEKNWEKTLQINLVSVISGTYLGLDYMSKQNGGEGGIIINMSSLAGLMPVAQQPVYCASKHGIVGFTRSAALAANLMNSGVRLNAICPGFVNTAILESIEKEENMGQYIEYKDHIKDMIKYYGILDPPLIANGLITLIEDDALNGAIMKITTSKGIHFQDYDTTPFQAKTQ

Potency, active:
CCCn1c(Sc2nc3c(c(=O)[nH]c(=O)n3C)n2CCC)nc2c1c(=O)[nH]c(=O)n2C 14.1 µM
O=c1[nH]c(-c2cccs2)nc2ccccc12 15.8 µM
Cc1cc2c(cc(C(=O)OCC(=O)NCc3ccco3)n2C)s1 14.1 µM
Cc1cccc(C2(c3cccc(C)c3)CC2C(=O)Nc2ccc([N+](=O)[O-])cc2O)c1 (stereo not given) 17.8 µM
COc1cc(/C=C(\C#N)C(N)=O)cc(CSc2nc3ccccc3s2)c1O 39.8 µM
O=S1(=O)C=C(Sc2nnc(-c3ccccc3)o2)c2ccccc21 14.1 µM
O=C(NC1CC1)C1CCN(c2ccc(S(=O)(=O)N3CCOCC3)cc2Cl)CC1 25.1 µM

Potency, inconclusive:
O=C1OCCN1C(=O)[C@H]1[C@H](c2ccc(Cl)cc2)C(c2ccc(F)cc2)=NN1c1ccc(Br)cc1 28.2 µM [inhibitor, partial curve]
COc1ccc(-c2nc(NC(=O)CSc3nnc4ccccn34)ns2)cc1 31.6 µM [inhibitor, single point]
Cc1cccc(CNc2ncnc3ccc(-c4ccc(C(=O)N(C)C)cc4)cc23)c1 3.55 µM [inhibitor, full curve]
Cc1cc(Br)ccc1NC(=O)C1CCCO1 (stereo not given) 35.5 µM [inhibitor, single point]
Cc1ccc(N/N=C/c2ccc(N3CCOCC3)cc2)cc1C 28.2 µM [inhibitor, partial curve]
Cc1nc(-c2ccccn2)sc1C(=O)Nc1ccc(Cl)c(Cl)c1 28.2 µM [inhibitor, single point]
Clc1ccccc1-c1nccc(-n2ccnc2)n1 35.5 µM [inhibitor, single point]
Cc1cc(C)c(C)c(C(=O)CSc2nnc(-c3ccc4[nH]c(C)c(C)c4c3)o2)c1C 20 µM [inhibitor, partial curve]
CCCCNC(=O)c1cc2nc3c(c(C(F)(F)F)n2n1)CCc1ccccc1-3 11.2 µM [inhibitor, partial curve]
COc1ccc2c(c1)[nH]c1c(Cl)ncnc12 35.5 µM [inhibitor, partial curve]
COc1cc2c(cc1NC(=O)c1cncc(Br)c1)oc1ccccc12 25.1 µM [inhibitor, partial curve]
CCCCn1c(SCC(=O)Nc2ccc(OC)cc2)nc2ccc(N3CCOCC3)cc2c1=O 25.1 µM [inhibitor, partial curve]
CCOc1cccc(C(=O)Nc2nnc(-c3ccco3)s2)c1 31.6 µM [inhibitor, partial curve]
CCOC(=O)c1nc(N)c(C(=O)OCC)[nH]1 28.2 µM [inhibitor, partial curve]
c1ccc2c3c(cc(N4CCOCC4)c2c1)OC1(N2CCOCC2)CCCCC1O3 (stereo not given) 28.2 µM [inhibitor, partial curve]
COP(=O)(OC)c1nc(-c2cccc3ccccc23)oc1NCc1ccccc1 28.2 µM [inhibitor, partial curve]
Cc1nc(Nc2ccc(S(=O)(=O)N3CCCC3)cc2)c2nnn(Cc3ccccc3)c2n1 31.6 µM [inhibitor, partial curve]
COc1ccccc1NC(=O)c1sc2ncn(Cc3ccc(C)cc3)c(=O)c2c1C 28.2 µM [inhibitor, partial curve]
Cc1cc(C)n(Cc2ccc(NC(=O)c3nn(C)cc3[N+](=O)[O-])cc2)n1 25.1 µM [inhibitor, partial curve]
COc1ccccc1-c1cc(C(F)(F)F)nc(N2CCCC2)n1 39.8 µM [inhibitor, single point]
c1ccc(-c2cc(-c3ccncc3)nc3ccc4ccccc4c23)cc1 31.6 µM [inhibitor, partial curve]
CC(NC(=O)c1ccccc1O)c1ccccc1 (stereo not given) 12.6 µM [inhibitor, partial curve]
Cc1cccc(/C=N/NC(=O)c2cc(-c3cccnc3)nc3c2c(C)nn3-c2ccccc2)c1 25.1 µM [inhibitor, partial curve]
CN(Cc1ccccc1)S(=O)(=O)c1ccc(OCC(=O)N2CCOCC2)cc1 14.1 µM [inhibitor, partial curve]
COc1cc(/C=N\Nc2cc(=O)n(C)c(=O)n2C)ccc1O 28.2 µM [inhibitor, partial curve]
CCCCc1cc(=O)oc2cc(OCC(=O)N(CC)CC)ccc12 15.8 µM [inhibitor, partial curve]

Activity change, negative = inhibition, inactive:
COC(=O)Nc1nc(C)c(C(=O)c2ccccc2)s1 -17.7%
COc1cc(C(=O)NNC2=NC(C)(C)Cc3cc(C)c(C)cc32)cc(OC)c1OC -9.02%
Cc1nc2ccccc2c(=O)n1/N=C/c1c(O)ccc2oc3c(c12)CCCC3 -16.9%
O=S(=O)(c1ccc2c(c1)oc1ccccc12)N1CCOCC1 -7.61%
CC(=O)NCCC(Cc1ccccc1)c1ccco1 (stereo not given) -10.7%
CSCC[C@H](NC(=O)c1ccc(Cl)c([N+](=O)[O-])c1)c1nc2ccccc2[nH]1 0.52%
COc1cccc(C2CC(c3ccccc3Cl)n3nc(N)nc3N2)c1 (stereo not given) -11.7%
Cc1cc(C(=O)COC(=O)CN(C)S(=O)(=O)c2ccc(Cl)cc2)c(C)n1CC1CCCO1 (stereo not given) -16.4%
Fc1cccc(F)c1C(Nc1nncs1)Nc1nncs1 -8.45%
CCCCCCCCCCCCCCCCCC(=O)OCC(C)O (stereo not given) -8.94%
C[C@H](C(=O)c1ccncc1)c1ccccn1 -14.5%
COc1cc([C@H]2[C@@H]3CCCC[C@]3(O)CCN2Cc2ccccc2F)ccc1O -10.3%
